Measurements published in the antibiotic and cytotoxicity screens of Wong et al. (2023).
Some of the results follow.

system: S. aureus RN4220; assay: growth inhibition call (relative growth <= 0.2); conditions: 50 µM

Growth inhibition call, inactive:
COc1ccc(NC(=O)Nc2ccc3c(c2)C(=O)N([C@@H](C)CO)C[C@@H](C)[C@H](CN(C)Cc2ccncc2)OCCCC[C@@H](C)O3)cc1
CC(=O)n1cc([C@@H]2C=C(C(=O)N3CCN(Cc4ccccc4)CC3)O[C@H](OCc3ccc(CO)cc3)C2)c2ccccc21
Cc1ccc(C(=O)Nc2cccc(C(F)(F)F)c2)cc1Nc1nc(-c2cccnc2)nc2c1cnn2C
C[C@@H]1CN([C@H](C)CO)C(=O)Cc2cc(NC(=O)CCCCCC(=O)Nc3ccccc3N)ccc2O[C@H]1CN(C)C(=O)Nc1cccc2ccccc12
C[C@@H]1CN([C@@H](C)CO)S(=O)(=O)c2ccc(C#CCN(C)C)cc2O[C@H]1CN(C)C(=O)CN(C)C
Cc1noc(C)c1S(=O)(=O)Nc1ccc2c(c1)C(=O)N([C@@H](C)CO)C[C@H](C)[C@H](CN(C)C(=O)NC(C)C)O2
N#C[C@H]1[C@H](c2ccc(C#Cc3ccccn3)cc2)[C@@H](CO)N1C(=O)CN1CCOCC1
Cc1noc(C)c1NC(=O)N(C)C[C@H]1OCCCC[C@@H](C)Oc2ccc(NS(=O)(=O)c3ccc(Cl)cc3)cc2C(=O)N([C@H](C)CO)C[C@@H]1C
C[C@@H]1CCCCO[C@H](CN(C)C(=O)c2ccccc2)[C@H](C)CN([C@@H](C)CO)C(=O)c2cc(NC(=O)Cc3ccccc3)ccc2O1
C[C@H](CO)N1C[C@H](C)[C@@H](CN(C)S(=O)(=O)c2cccs2)Oc2ccc(NC(=O)c3ccncc3)cc2C1=O
C[C@@H]1CN([C@@H](C)CO)C(=O)c2cc(NS(=O)(=O)c3cccs3)ccc2O[C@@H]1CN(C)S(C)(=O)=O
C[C@@H]1CCCCO[C@@H](CN(C)C(=O)Nc2ccc(C(F)(F)F)cc2)[C@H](C)CN([C@H](C)CO)C(=O)c2cc(NC(=O)c3ccncc3)ccc2O1
C[C@@H]1CN([C@H](C)CO)C(=O)c2cc(NC(=O)Cn3cnnn3)ccc2O[C@@H]1CN(C)Cc1ccncc1
Cc1noc(C)c1S(=O)(=O)N(C)C[C@@H]1Oc2ccc(NS(=O)(=O)c3ccc(Cl)cc3)cc2CC(=O)N([C@H](C)CO)C[C@H]1C
CC(C)NC(=O)N(C)C[C@H]1Oc2ccc(NS(=O)(=O)c3ccc(F)cc3)cc2CC(=O)N([C@@H](C)CO)C[C@H]1C
C[C@@H]1CCCCO[C@@H](CN(C)S(=O)(=O)c2cn(C)cn2)[C@@H](C)CN([C@@H](C)CO)C(=O)c2cc(NC(=O)Nc3ccc(C(F)(F)F)cc3)ccc2O1
NS(=O)(=O)c1ccc2c(c1)COC2
C[C@@H]1CCCCO[C@H](CN(C)S(C)(=O)=O)[C@H](C)CN([C@@H](C)CO)C(=O)c2cc(NS(=O)(=O)c3ccc(F)cc3)ccc2O1
CN1C(=O)c2cc(NC(=O)c3cnccn3)ccc2OC[C@H]2O[C@H](CC(=O)N[C@@H]3CCN(Cc4ccccc4)C3)CC[C@@H]21
C[C@@H]1CN([C@H](C)CO)C(=O)c2cc(NC(=O)c3ccccc3)ccc2O[C@@H](C)CCCCO[C@H]1CN(C)Cc1ccc(Cl)c(Cl)c1
COc1ccc(CNC(=O)N(C)C[C@H]2OCc3ccccc3-c3c(n(C)c4ccccc34)C(=O)N([C@@H](C)CO)C[C@@H]2C)cc1
O=c1ccc2ccccc2o1
C[C@@H]1CN([C@H](C)CO)C(=O)Cc2cc(NS(=O)(=O)c3ccccc3)ccc2O[C@@H]1CN(C)CC1CC1
O=C1C(CCC(O)c2ccc(F)cc2)C(c2ccc(O)cc2)N1c1ccc(F)cc1 (stereo not drawn)
O=C(CCCCCC(=O)N/N=C/[C@H](O)[C@@H](O)[C@@H](O)[C@H](O)CO)NO
COc1ccc(NC(=O)N(C)C[C@H]2OCCCC[C@@H](C)Oc3ccc(NC(=O)Nc4c(C)noc4C)cc3C(=O)N([C@H](C)CO)C[C@H]2C)cc1
O=C(Nc1ccc(C(F)(F)F)cc1)Nc1ccc2c(c1)[C@H]1C[C@H](CC(=O)N3CCc4ccccc4C3)O[C@@H](CO)[C@H]1O2
NC(=O)NCC#Cc1ccc2c(c1)[C@]1(C(=O)N2)[C@H](C(=O)O)[C@H]2C(=O)O[C@H](c3ccccc3)[C@H](c3ccccc3)N2[C@@H]1c1ccc(OCCO)cc1
